Results are given in words; binding and its absence hold for the method and conditions named. Binding seen in cells or lysates may run through a third protein. Some entries that bind do so weakly or less than the wild type. Tags and fused reporters may be left off the sequences shown.

Sequences of proteins named here, by UniProt entry; tags and fusion partners are left off.
UniProt Q96P20: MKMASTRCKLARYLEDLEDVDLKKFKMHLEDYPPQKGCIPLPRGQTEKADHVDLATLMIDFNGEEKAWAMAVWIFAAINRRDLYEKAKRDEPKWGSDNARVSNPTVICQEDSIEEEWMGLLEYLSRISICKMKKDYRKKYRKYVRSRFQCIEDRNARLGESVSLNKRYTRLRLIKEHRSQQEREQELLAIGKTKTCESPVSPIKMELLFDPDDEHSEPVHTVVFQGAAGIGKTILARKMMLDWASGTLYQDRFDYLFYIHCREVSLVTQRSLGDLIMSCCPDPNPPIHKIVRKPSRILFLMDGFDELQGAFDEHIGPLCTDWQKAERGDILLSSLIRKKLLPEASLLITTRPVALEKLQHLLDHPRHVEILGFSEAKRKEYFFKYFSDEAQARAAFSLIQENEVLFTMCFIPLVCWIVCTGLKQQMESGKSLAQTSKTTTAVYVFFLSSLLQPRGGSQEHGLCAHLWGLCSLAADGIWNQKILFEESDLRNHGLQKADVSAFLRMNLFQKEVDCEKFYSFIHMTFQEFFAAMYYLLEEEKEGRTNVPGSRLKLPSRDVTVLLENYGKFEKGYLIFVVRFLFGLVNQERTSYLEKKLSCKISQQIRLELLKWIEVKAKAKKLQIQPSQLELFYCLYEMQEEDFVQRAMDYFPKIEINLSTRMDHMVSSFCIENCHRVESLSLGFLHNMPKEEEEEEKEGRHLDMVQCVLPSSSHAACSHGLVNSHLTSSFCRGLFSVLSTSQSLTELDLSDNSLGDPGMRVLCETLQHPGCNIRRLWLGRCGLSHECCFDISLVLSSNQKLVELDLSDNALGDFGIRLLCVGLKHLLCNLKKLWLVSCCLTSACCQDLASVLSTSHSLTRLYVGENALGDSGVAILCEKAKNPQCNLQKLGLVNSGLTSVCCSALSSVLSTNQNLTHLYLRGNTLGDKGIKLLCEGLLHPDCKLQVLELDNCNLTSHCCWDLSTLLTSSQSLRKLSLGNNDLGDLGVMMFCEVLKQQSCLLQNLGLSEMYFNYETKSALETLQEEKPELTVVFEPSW

The target of assay [1] is T1, NLRP11-Flag (human) (UniProt P59045).
T1 sequence: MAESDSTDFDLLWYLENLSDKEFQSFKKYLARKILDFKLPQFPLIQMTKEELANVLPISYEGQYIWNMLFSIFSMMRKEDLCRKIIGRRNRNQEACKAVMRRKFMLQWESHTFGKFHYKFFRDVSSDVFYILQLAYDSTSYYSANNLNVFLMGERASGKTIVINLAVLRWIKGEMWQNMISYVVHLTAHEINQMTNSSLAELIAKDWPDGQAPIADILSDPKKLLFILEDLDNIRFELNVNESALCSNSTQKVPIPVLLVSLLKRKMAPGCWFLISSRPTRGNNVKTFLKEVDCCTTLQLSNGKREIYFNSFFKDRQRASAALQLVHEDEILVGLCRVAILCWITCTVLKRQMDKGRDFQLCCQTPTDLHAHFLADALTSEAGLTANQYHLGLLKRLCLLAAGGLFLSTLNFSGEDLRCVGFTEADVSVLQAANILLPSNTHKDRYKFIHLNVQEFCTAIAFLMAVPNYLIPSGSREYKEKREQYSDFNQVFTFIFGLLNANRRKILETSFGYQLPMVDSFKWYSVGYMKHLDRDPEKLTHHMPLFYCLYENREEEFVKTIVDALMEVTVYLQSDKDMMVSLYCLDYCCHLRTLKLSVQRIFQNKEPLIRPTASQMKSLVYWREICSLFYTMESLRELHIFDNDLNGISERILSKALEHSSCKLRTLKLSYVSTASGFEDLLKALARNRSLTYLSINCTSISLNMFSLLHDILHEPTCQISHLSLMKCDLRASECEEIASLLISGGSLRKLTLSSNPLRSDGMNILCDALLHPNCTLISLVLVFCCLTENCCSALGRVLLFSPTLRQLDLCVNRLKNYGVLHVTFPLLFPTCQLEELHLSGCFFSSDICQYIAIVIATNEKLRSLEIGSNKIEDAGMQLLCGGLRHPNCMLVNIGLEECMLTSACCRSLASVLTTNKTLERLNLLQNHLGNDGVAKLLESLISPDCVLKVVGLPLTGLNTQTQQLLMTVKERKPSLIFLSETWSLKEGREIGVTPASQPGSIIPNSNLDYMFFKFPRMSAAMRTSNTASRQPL
The experiment in a line: co-IP; immobilised anti-Flag antibodies, culture supernatants of NLRP11^Flag THP-1 cells primed with LPS and activated with nigericin (5 uM, 10 min); media adjusted to 0.1% Triton X-100, washed with 50 mM NaCl, 0.1% Triton X-100; immunoblot for NLRP3.

Assay [2] deals with T1, NLRP11-Flag (human). The experiment in a line: condition: only supernatants of primed cells without nigericin; co-IP; as a12 but supernatants of cells LPS-primed only, without nigericin.

Take “NLRP3 (endogenous, THP-1) (from UniProt Q96P20 1-1036)”: the binding entry is “binds” with NLRP11-Flag (human) [1] and “no binding” with NLRP11-Flag (human) [2].

These data come from paper PMC9174058.
